Laboratory results as given in the supplement of paper PMC11417369.
± gives the standard deviation of the averaged measurements. The list shows a part of the results.

tested on: PfAP2-I AP2 domain 3 (GST-tagged); experiment: gcPBM binding intensity (ln(normalized median fluorescence intensity)); higher = stronger DNA binding
Outline: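 Binding intensity values are the highest Masliner-normalised natural-log median intensity among replicate spots of either probe orientation. The binding step lasted 1 h in 1× PBS with 1% milk, 0.2 mg/ml BSA, 0.5% salmon testes DNA and 0.03% Triton X-100, using GST-tagged P. falciparum DNA-binding domains expressed in E. coli on an Agilent 4 × 180k array of primer-extended double-stranded 36-bp intergenic genomic probes plus negative controls. Alexa488 anti-GST antibody and a 488 nm scan detected bound protein.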

Sequence | gcPBM binding intensity (ln)
ATATAATCAACTGCAAAGGTTTAAAAGGAAAAAATA [CACACA_negctrl_site989] | 7.68 ± 0.78
TTTTTATTCAACAAAAATATCAAACATAATTATAAA [CACACA_negctrl_site616] | 7.64 ± 0.49
AATATTTATATTTACACACACATAATACATATATGT [CACACA_site33] | 7.87 ± 0.59
ATATACAACTAAAGAACACACATCATTGTTCATTGG [CACACA_site3681] | 7.58 ± 0.61
ATTTTTATGTCTTTCTATAAATCGAAAATATACATA [CACACA_negctrl_site477] | 7.7 ± 0.52
TTCCTTTAACCCTGCACACATACATACATTTATATG [CACACA_site3953] | 8.91 ± 0.63
CGTCCAAAATATCCTTCACACACGAACAGTTTCATT [CACACA_site2729] | 7.99 ± 0.52
CTATAATATTATAACAGTACATAATATTATATATAT [XGTACX_site1414] | 8.21 ± 0.56
TTTAAATAAAAATGGAGTACTCTAAAAAAAAAAAAA [XGTACX_site1233] | 8.21 ± 0.49
GCATTGATCAAACATACACACATGGTTAATAAAAAT [CACACA_site2085] | 7.96 ± 0.36
TTTATATAATATTCTACACACCAACAACAAACATAT [CACACA_site4478] | 8.41 ± 0.25
ATATATATATATAATACACACATAAATGAATATATA [CACACA_site316] | 9.11 ± 0.11
GTGATTTCTATGAATTGTACTTAAATATAGTTATAT [XGTACX_site231] | 7.78 ± 0.42
TTATAGACATATATAGGTACACATATTTTCAATCCC [XGTACX_site8230] | 7.83 ± 0.48
ATTTATTAATCATATACACACATATATTTGTATTTA [CACACA_site1336] | 7.67 ± 0.49
TATTTTTTTAAAATAGGTACACAATCAAACATTTAT [XGTACX_site8785] | 7.95 ± 0.42
ACCTCATAATATTTAACACACAAAATTATCTGTATG [CACACA_site5015] | 8.02 ± 0.56
CTTTTTTTTTTGTATTGTACTTTATTTTTACATCGT [XGTACX_site2918] | 8.1 ± 0.45
ATTTTTAATTTTTTCACACATATATTTAAAATAAAA [CACACA_site4799] | 7.94 ± 0.49
ATTCTAATTTTATGAAACGATTATTTTGAATTCATT [XGTACX_negctrl_site578] | 7.68 ± 0.51
ATAAAAAAAAATATATGTACATATATAAATTGATAT [XGTACX_site7409] | 7.92 ± 0.76
GATTACCTTTTTTTTTTTTTTTTTTTTTTTTTTTTC [CACACA_negctrl_site147] | 7.47 ± 0.69

Sequence | gcPBM binding intensity (ln)
TGAAATGAAAGAACAGCACACATATATATTATATAT [CACACA_site8613] | 7.86 ± 0.61
TATATTTTTTAAAAAAGTACAAAGTAATTATTGATT [XGTACX_site2420] | 7.86 ± 0.42
GTAGTACATTCTAGAATACACACCTATATATATATA [CACACA_site522] | 9.38 ± 0.43
ATATGAAAAACTTCATGTACTTATTATAAAATATAA [XGTACX_site2725] | 7.58 ± 0.29
TTCTTAAAAAATCAAACACACATATATAAATACATA [CACACA_site5301] | 7.68 ± 0.12
AAAAAATATAAAAAAACACACAAAAAAAAAAAAAAA [CACACA_site1382] | 7.96 ± 1
CCCCATTTATCTTAAGCATGCCATGGTTTTAGATAT [TGCATGCA_site24] | 8.36 ± 0.47
AAAGACGTTTATAAATGTACATACACTTTAAAAGTT [XGTACX_site8753] | 7.67 ± 0.66
ATAAAAAAAAAAAATACACACATATATATATATATA [CACACA_site1709] | 9.38 ± 0.37
CATATATACAGTAACACACACAAAAAAATATGAATA [CACACA_site3996] | 7.83 ± 0.57
TTATTTATTTATTATAGTTCACTTGAAAATACAAGA [CACACA_negctrl_site1480] | 7.69 ± 0.57
AATAGTGTCATAAAAACTATTATCATATAATGTGAA [CACACA_negctrl_site1578] | 7.63 ± 0.5
TAATTTATAACACGCGCACACATATATATATAGTAA [CACACA_site121] | 8.09 ± 0.41
TTTCTTTTTAACTCTTACATAATAGGTGGTAGAAGG [TGCATGCA_negctrl_site176] | 8.07 ± 0.3
TTGTTGTGTATTATCGTGCACATAATATAAAAGATT | 11.11 ± 0.078
CAGAAATATTCTTATACACACTGTTCTTATATTCCT [CACACA_site4318] | 7.79 ± 0.64
AATATATATATAAATAGTACATATAAAGAGAATTTT [XGTACX_site3168] | 7.97 ± 0.4
TTTATCTTTTTTTGTTGTACAGATGTTTATATTTTA [XGTACX_site4065] | 7.91 ± 0.62
ATTAAAACAAAATGTACACACATATAATTTAATGAC [CACACA_site878] | 7.89 ± 0.39
AATAACATTATTTTATGTACACATGAAAAATAAAAT [XGTACX_site4657] | 7.85 ± 0.34
TGATATTTCATCATAGTGCAATATGGCATATAAATA [GTGCAC_site9433] | 10.8 ± 0.39
TGTAATAAACTACTTTTTTTTTTTTTTTTTTTTTTT [CACACA_negctrl_site1021] | 9.67 ± 0.13

Sequence | gcPBM binding intensity (ln)
AATATCAAAATAACATGTACATGTTATATTTTATTT [XGTACX_site5891] | 7.54 ± 0.49
GTATATATCTCAGAGCATAATAGTATAATTCGGTCA [CACACA_negctrl_site876] | 7.63 ± 0.48
AATTATTTTAGAAACACACAAATTAGAAAAAACATA [CACACA_site7673] | 7.71 ± 0.4
TAACACCAAACTAAATGTACACACATACATAAATAT [XGTACX_site2201] | 7.79 ± 0.5
TCTTATATGATATTTATTTATTTATTTATTTATTCA [GTGCAC_negctrl_site686] | 7.42 ± 0.56
TTTATTTTTTGTGGCACACAGAAGAAACAAGAACAA [CACACA_site1696] | 9.11 ± 0.099
AATGAATAATTATTTTGTACATAATATTATATTTAT [XGTACX_site5350] | 7.63 ± 0.5
TAAATGTGAACAATAGAAGTAATAAGAAGAATAAAA [CACACA_negctrl_site1080] | 7.83 ± 0.7
AATAGTAATTTGAATACACACAATAATATATTTATA [CACACA_site7055] | 7.54 ± 0.5
TATTGTTTTTTTTACTGTACACAAGTAAATGAAAAA [XGTACX_site790] | 8.15 ± 0.28
AAAAAATTCAAAAGGTGTACAACATTATATTATTCC [XGTACX_site5118] | 7.91 ± 0.49
TCTGTATATTATTCAAGTACACAATATAAATATAAA [XGTACX_site7241] | 7.72 ± 0.34
GATAACTTTTTTCTCACACACAAATATTTTAATCAT [CACACA_site7685] | 8.03 ± 0.51
AAAAATAAAAAAATAAATACGTATACATATATAATA [TGCATGCA_negctrl_site551] | 7.53 ± 0.55
GTATATAATTAAAGTTGTACCCTTAAAAAAGGGAAA [XGTACX_site7278] | 7.85 ± 0.16
TATAATTATATGTATACACACACATACATTTACATA [CACACA_site9061] | 7.95 ± 0.52
AAAATGAAAATGAAAATGAAAATGGGAAAATGTCAA [TGCATGCA_negctrl_site488] | 7.74 ± 0.85
CATATATATCGTAATGCACACATGTAATTTCATAAT [CACACA_site811] | 11 ± 0.92
TTATATATAAGTTTATTCATTTTTTTTTTTTTTTTT [XGTACX_negctrl_site573] | 8.34 ± 0.19
TAAATAAAAAAGAATACACACAGCATGCATAAATAT [CACACA_site237] | 8.04 ± 0.94
ATAAGCTCATGCAGGTGTACACAAAAAGAAAAAAAA [XGTACX_site2433] | 8.55 ± 0.45
ATAATGAAAAGGAACATACACACCCCATATAAATAT [CACACA_site3442] | 8.4 ± 0.83

Sequence | gcPBM binding intensity (ln)
ACTTATACAAAATGTGCATGTTATATTTACAATAAT [TGCATGCA_site108] | 8.32 ± 0.58
AAATTAAATGTAAGCACACATAAATTATACTCATAT [CACACA_site5782] | 7.84 ± 0.5
GGAATAGTAATATATACACACAAATACATATATATA [CACACA_site67] | 8.38 ± 0.67
TTTATTTTTTAATGATGTACTATTTATCCAGAAAAG [XGTACX_site7750] | 7.89 ± 0.085
TTTTCCAATTTAAAAGCATGCATCTGTTTTTTTTTT [TGCATGCA_site482] | 7.55 ± 0.97
AGAGGTAGAGAGAAAACATGCATAATGATTTTCATA [TGCATGCA_site958] | 7.74 ± 0.49
TAGAGGTATAAAATATGTACTTATAAAAACATGAAT [XGTACX_site8916] | 7.88 ± 0.48
TATATGATATAATATACACACATACAGATATATATA [CACACA_site4440] | 7.71 ± 0.47
AAATTATTAAGTGATATAATATTCTATAGATGGGGA [CACACA_negctrl_site168] | 7.74 ± 0.47
TTTTTATAACTATATTATATAACTTTTGTACGAACT [CACACA_negctrl_site1423] | 7.63 ± 0.54
ACATATAAATAAATAAATATATATATATATATATAT [GTGCAC_negctrl_site378] | 9.33 ± 0.62
TATTTACACCTAATCACAAATAAAATAAAATCAAAT [CACACA_negctrl_site531] | 7.86 ± 0.46
TAAATCAAAATAATTTAACACACAATTTTAATACTG [CACACA_site8744] | 7.34 ± 0.54
GATAAGGTATTCAAATGTACAAAATGTTTTATATAA [XGTACX_site6863] | 7.64 ± 0.44
TAAAAAAAATATTTTTGTACGAATTAAATTTTTTTT [XGTACX_site4838] | 7.45 ± 0.61
TATGAAATTTTAATTACACACAGGAAAATAAAATGG [CACACA_site4935] | 8.04 ± 0.68
ACATATTTTTAATACACACTCAAAAAAGTACTTAAC [CACACA_site3014] | 8.2 ± 0.28
AAAAAAAGTAAATGTTGTACTATAATATGTAATATA [XGTACX_site7966] | 7.58 ± 0.34
AAATAACACTAATGATGTACTCAACTATTTATAATT [XGTACX_site8183] | 7.69 ± 0.54
TACATATATATTATATGTACTTATATTTTTATAATA [XGTACX_site3452] | 7.4 ± 0.3
ATATACATATCCATATTTATATCTATATTTAAAACA [CACACA_negctrl_site747] | 7.56 ± 0.62
